# Screen size: about 110,000 compounds; about 230 (0.21%) showed an effect of 50% or more. The list shows a part of the results.
# Target: DPAP1 (Plasmodium falciparum, UniProt Q8IIJ9)
# Assay: primary screen, percent inhibition; read by cleavage of a fluorogenic dipeptide substrate; higher = more effect of the substance
# Parameters: species or system P. falciparum D10 trophozoite lysates; single well
# 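Note: 30 min substrate incubation versus DMSO and 10 µM JCP410 controls.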
# DPAP1, sequence (Q8IIJ9 whole entry, looked up): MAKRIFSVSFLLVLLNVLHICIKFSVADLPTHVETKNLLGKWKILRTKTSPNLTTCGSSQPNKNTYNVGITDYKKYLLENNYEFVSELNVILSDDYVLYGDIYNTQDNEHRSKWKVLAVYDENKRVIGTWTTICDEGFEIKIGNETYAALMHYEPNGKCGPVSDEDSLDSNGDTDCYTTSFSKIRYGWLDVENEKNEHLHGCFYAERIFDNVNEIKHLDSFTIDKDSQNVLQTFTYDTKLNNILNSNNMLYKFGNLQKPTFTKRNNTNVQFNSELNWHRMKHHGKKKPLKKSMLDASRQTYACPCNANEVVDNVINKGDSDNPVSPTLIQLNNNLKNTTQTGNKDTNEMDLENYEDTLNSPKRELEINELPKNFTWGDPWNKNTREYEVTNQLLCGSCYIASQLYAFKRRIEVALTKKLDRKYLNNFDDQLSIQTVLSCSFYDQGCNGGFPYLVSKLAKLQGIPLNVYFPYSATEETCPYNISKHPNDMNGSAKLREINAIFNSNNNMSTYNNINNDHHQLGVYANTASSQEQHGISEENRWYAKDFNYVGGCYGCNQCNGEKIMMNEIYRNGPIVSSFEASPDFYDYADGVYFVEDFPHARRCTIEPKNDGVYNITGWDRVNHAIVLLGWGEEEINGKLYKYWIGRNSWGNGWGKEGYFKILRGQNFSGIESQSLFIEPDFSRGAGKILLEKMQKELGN
row,Compound,% Inhibition @ 10 uM
1,COc1cccc(C(=O)Nc2ccc(S(=O)(=O)Nc3nccnc3OC)cc2)c1,11.5%
2,CC(C)CN(CC(C)C)S(=O)(=O)c1ccc(CN2C(=O)c3cccnc3C2=O)s1,-6.31%
3,O=C(NCCN1CCCC1)c1cccc(Br)c1,-4.12%
4,COc1ccc(-c2cc(C(F)(F)F)n3nc(C(=O)N4CCN5CCCC5C4)cc3n2)cc1OC (stereo not shown),6.52%
5,COc1ccc(C(NC(=O)Cc2ccccc2)c2ccc3cccnc3c2O)cc1OC (stereo not shown),3.04%
6,CC(C)(C)c1ccc(C2c3c(-c4ccccc4O)n[nH]c3C(=O)N2CCO)cc1 (stereo not shown),3.62%
7,COC(=O)c1cc(-c2ccc(OC)cc2)nc2ccc(Cl)cc12,-4.93%
8,CCN1CCN(C(=O)c2cc3cc4ccc(OC)cc4nc3s2)CC1,-0.984%
9,Cc1nc2sccn2c(=O)c1S(=O)(=O)NCC1CCN(Cc2ccccc2Cl)CC1,-0.256%
10,CCN(CC)S(=O)(=O)N(CC(=O)O)CC(=O)O,3.04%
11,COC(=O)c1cnn(-c2ccc(C)cc2)c1-n1cccc1,4.79%
12,CSc1nc2n(n1)C(c1ccc(F)c(Br)c1)C1=C(O)CC(C)(C)CC1=N2 (stereo not shown),-1.62%
13,CCOc1ccc(-c2cc(C(=O)N3CCN(c4ccccn4)CC3)c3ccccc3n2)cc1,-0.733%
14,COc1ccc(/C=C2\SC(=O)N(Cc3ccc(F)cc3)C2=O)c(OC)c1,5.28%
15,OCC1OC(Nc2ccc(OC(F)(F)Cl)cc2)C(O)C(O)C1O (stereo not shown),-2.67%
16,Cc1cc(N)n(-c2ccccc2Cl)n1,4.01%
17,CC(C)c1ccc(S(=O)(=O)N2CCN(c3ccccc3F)CC2)cc1,-0.425%
18,COc1ccc(C2CC(C(F)(F)F)n3ncc(C(=O)O)c3N2)cc1OC (stereo not shown),4.86%
19,Cc1nc2c3c(-c4ccccc4)c(-c4ccccc4)oc3ncn2n1,-3.91%
20,Cc1cc(C)cc(N(CC(=O)Nc2ccc(F)cc2)S(=O)(=O)c2ccccc2)c1,2.42%
21,Cc1ccc(CNC(=O)N2CCC(CN3CCOCC3)CC2)cc1,2.47%
22,CC(O)CN(Cc1ccc(F)c(F)c1)CC(C)O (stereo not shown),-3.27%
23,COc1ccccc1C(=O)Nc1ccc(Cl)c(Cl)c1,-2.51%
24,Cc1ccc2cccc(OCc3nnc(SCC(=O)O)n3C)c2n1,-7.65%
25,O=[N+]([O-])c1cccc(S(=O)(=O)/C=C/c2ccccc2)c1,-3.55%

row,Compound,% Inhibition @ 10 uM
1,NC(=O)c1ccc(NC(=O)C(Sc2ccccc2)c2ccccc2)cc1 (stereo not shown),-6.59%
2,CC(C)CN(CC(C)C)S(=O)(=O)c1ccc(CN2C(=O)c3cccnc3C2=O)cc1,-3.9%
3,O=C(O)c1c2c(nc3ccc(Br)cc13)CCCCC2,2.99%
4,CCOC(=O)c1c(C)n(C)c2cc(CN(C)C)c(O)c(CN(C)C)c12,5%
5,CC(C)CN(CCNC(=O)CN1N=C(c2ccc(Cl)cc2)CCC1=O)CC(C)C,2.18%
6,Cn1c(=O)c2c(nc(CN3CCN(CCO)CC3)n2CCCc2ccccc2)n(C)c1=O,-3.23%
7,CCOc1ccc(NC(=O)CCC(=O)c2ccc(OC)cc2)cc1,4.67%
8,Cc1ccc(-n2c(CNCc3cccnc3)nc3ccccc3c2=O)cc1,-2.98%
9,Cc1ccc(C(=O)N2CCC(Cc3ccccc3)CC2)cc1,-1.48%
10,CCN(CC)S(=O)(=O)c1cc(C(=O)OC)ccc1Br,0.135%
11,CCCCNS(=O)(=O)c1ccc(NC(C)=O)cc1,5.69%
12,Cc1ccc(S(=O)(=O)N2CCN=C2c2ccccc2)cc1C,-10.9%
13,Cc1ccccc1N(CC(=O)NCC1CCCO1)S(C)(=O)=O (stereo not shown),0.161%
14,COc1ccc(CNC(=O)c2nnn(-c3cccc(C(F)(F)F)c3)c2N)cc1,0.4%
15,COc1ccc(Br)cc1/C=c1\sc2nnc(-c3ccccc3C)n2c1=O,0.222%
16,O=C(CCc1ccccc1)Nc1ccc(S(=O)(=O)N2CCCCCC2)cc1,0.764%
17,CC1=C(C(=O)OCCc2ccccc2)C(c2cccc(F)c2)NC(=O)N1 (stereo not shown),4.38%
18,CCC(C)c1ccc(NS(=O)(=O)c2ccc(F)cc2)cc1 (stereo not shown),-3.15%
19,O=C(Nc1ccc(S(=O)(=O)N2CCc3ccccc32)cc1)c1cccs1,1.01%
20,CCC(C(=O)NCC1CCCO1)n1nc(C)c2sc3ccccc3c2c1=O (stereo not shown),-0.229%
21,CCOc1ccc(C(C)NC(=O)c2ccc(Cl)cc2)cc1OCC (stereo not shown),3.44%
22,Cc1ccc(-c2cn3nc(C(C)C)sc3n2)c(C)c1,-6.43%
23,Cc1ccc(S(=O)(=O)N2CCC(Cc3ccccc3)CC2)cc1[N+](=O)[O-],-2.77%
24,CCC(C)(C)NC(=O)Cn1c(-c2ccccc2)cc(C(C)=O)c1C,-2.1%
25,CN(C)c1cc(NC(=O)C23CC4CC(C2)C(C4)C3)c2ccccc2n1,-2.42%

row,Compound,% Inhibition @ 10 uM
1,CC(C)CCNC(=O)C1CCC(CNS(=O)(=O)c2ccc(Cl)cc2)CC1 (stereo not shown),-4.53%
2,CN(Cc1ccccc1)C(=O)c1ccc(F)cc1,-12%
3,Cc1ccc(C)c(NC2=C(Cl)C(=O)N(Cc3ccccc3)C2=O)c1,-0.99%
4,Nc1nc(Nc2ccc(Cl)cc2)nc(-c2cc(Cl)ccc2O)n1,1.19%
5,COc1cc(-n2nc(C)c(/C=N/c3ccc(Cl)c(C(=O)O)c3)c2O)ccc1Cl,4.67%
6,COc1ccc(N(CC(=O)Nc2cc(C)cc(C)c2)S(=O)(=O)c2ccc(NC(C)=O)cc2)cc1,3.09%
7,COc1ccc(N(CC(=O)Nc2cc(C)ccc2C)S(=O)(=O)c2ccccc2)cc1OC,-6.39%
8,CCSC1=C(C#N)C(c2ccc(F)cc2)CC(=O)N1 (stereo not shown),0.851%
9,Cc1ccc2onc(CNC(=O)NCc3ccccc3Cl)c2c1,2.46%
10,Cc1oc(-c2ccc(Cl)cc2)nc1CS(=O)CC(=O)NCC1CCCO1 (stereo not shown),-1.05%
11,Fc1cc(F)c(F)c(-n2ncc3c2ncn2nc(-c4ccccc4)nc32)c1F,2.19%
12,N#Cc1ccccc1-c1ccc(/C=C2/SC(=O)N(CC(=O)N3CCOCC3)C2=O)o1,0.189%
13,CC1CCC(N2CCN(c3ccccc3)CC2)CC1 (stereo not shown),0.217%
14,O=C(CSc1nc2ccccc2o1)N1CCN(c2nnc(-c3ccccc3)c3ccccc23)CC1,2.46%
15,O=C(NCCc1ccccc1)c1cc(-c2ccc(O)cc2)on1,6.29%
16,CC(NC(=O)COCc1cc(-c2cccs2)on1)c1ccccc1 (stereo not shown),-7.33%
17,Cc1ccc(NC(=O)c2cccc(Cl)c2)cc1O,-3.24%
18,Cc1ccc(S(=O)(=O)c2nc(-c3ccc(F)cc3)oc2N(C)C)cc1,-5.54%
19,COc1ccc(C(=O)Nc2sc(Cc3ccccc3)c(C)c2C(N)=O)cc1,-1.98%
20,CC(=O)Nc1ccccc1-c1nc2cc3ccccc3cc2n(Cc2ccccc2)c1=O,-2.8%
21,CS(=O)(=O)c1ccc2nc(NC(=O)CCC3CCCCC3)sc2c1,-1.28%
22,CCOc1ccc(CCNC(=O)CN2C(=O)CSc3c2c(C)nn3-c2ccccc2)cc1,-3.04%
23,COc1cc2c(cc1OC)C(C(=O)O)C(c1cccnc1)N(C)C2=O (stereo not shown),-0.74%
24,Nc1c(C(=O)NC2CCCCC2)sc2nc3c(cc12)CN(Cc1ccccc1)CC3,2.34%
25,CC(C)c1ccc(C2NC(C(=O)O)Cc3c2[nH]c2ccccc32)cc1 (stereo not shown),-0.0372%

row,Compound,% Inhibition @ 10 uM
1,CN1CCN(CCCNC(=O)Cn2ncc3c4ccccc4n(C)c3c2=O)CC1,-7.36%
2,O=S(=O)(O)c1nc2ccccc2s1,-6.2%
3,O=C(CCc1nnc2n(Cc3ccc(F)cc3)c(=O)c3ccccc3n12)NCc1cccnc1,-0.692%
4,O=C(NCc1ccccc1)/C(=C/c1ccc2c(c1)OCO2)NC(=O)c1ccccc1Cl,23.4%
5,CC(C)(C)C(=O)/C(=C/c1ccncc1)n1cncn1,-5.33%
6,Cc1cc(C(=O)Nc2c(C)nn(Cc3ccccc3)c2C)no1,1.82%
7,CCOC(=O)N1CCN(S(=O)(=O)N2CCCC(C(=O)NCCc3ccc(Cl)cc3)C2)CC1 (stereo not shown),-1.34%
8,C/C(CC(=O)c1ccccc1)=C1\C(=O)NN(c2ccccc2)C1=O,-3.13%
9,Cc1cc(NCc2ccccn2)nc2ccccc12,0.0538%
10,Cc1cc(C)c2c3c(sc2n1)C(c1ccc(F)c(F)c1)C(C#N)=C(N)O3 (stereo not shown),6.29%
11,COc1ccc(C2C(=O)N(C3CCCCC3)CC(=O)N2Cc2ccc3c(c2)OCO3)cc1 (stereo not shown),2.9%
12,COc1ccc(C(=O)Nc2ccc(N3CCN(C)CC3)cc2)cc1,4%
13,CC1CN(C(=O)c2c(NC(=O)c3ccccc3)sc3c2CCC(C(C)(C)C)C3)CC(C)O1 (stereo not shown),-1.4%
14,Cc1ccc(CNC(=O)CSc2ccc(-c3cccs3)nn2)cc1,-1.11%
15,Cc1ccc(CNCc2ccccc2Cl)cc1,3.99%
16,CCNC(=O)c1cc2c(=O)n3cc(C)ccc3nc2n(CCc2ccccc2)c1=N,3.6%
17,O=S(=O)(NC1(C(F)(F)F)OCCO1)c1ccccc1,1.62%
18,CC(CCc1ccccc1)NCCN(C)C (stereo not shown),-0.0908%
19,Nc1ccc(S(=O)(=O)Nc2nccc(/C=C/c3cccc(Br)c3)n2)cc1,0.687%
20,COc1ccc(C2N3CC4(C)CN2CC(C)(C3)C4)cc1 (stereo not shown),0.67%
21,CN(C)c1ccnc(SCC(N)=O)c1C#N,-5.68%
22,CC(=O)Nc1cccc(NC(=N)Nc2nc(C)cc(C)n2)c1,3.57%
23,CCCN(CCO)C1CCN(Cc2ccccc2)CC1,-9.34%
24,Fc1ccc(N2CCN(Cc3ccoc3)CC2)cc1,7.03%
25,O=C(NCc1cccnc1)C1CC(c2ccc(F)cc2)=NO1 (stereo not shown),-2.16%

# — publication PMC6919601, “Identification of Plasmodium dipeptidyl aminopeptidase allosteric inhibitors by high throughput screening” (PLoS ONE, 2019)
